This is one part of the list. The full chains were built here from the parent and the listed change. Inactive controls read about 0.05.
B1: TEV protease; numbered along this chain (parent)
chain: MGESLFKGPRDYNPISSSICHLTNESDGHTTSLYGIGFGPFIITNKHLFRRNNGTLVVQSLHGVFKVKDTTTLQQHLVDGRDMIIIRMPKDFPPFPQKLKFREPQREERICLVTTNFQTKSMSSMVSDTSCTFPSGDGIFWKHWIQTKDGQCGSPLVSTRDGFIVGIHSASNFTNTNNYFTSVPKNFMELLTNQEAQQWVSGWRLNADSVLWGGHKVFMVKPEEPFQPVKEATQL

Variants of: B1
Assay: raw area under fraction-flipped curve 0-4 h after induction (AUC4h, not background-subtracted), DNA-recorder readout of cleavage of the substrate (dimensionless); higher = more cleavage of the substrate by the protease variant
Details: temperature: 34 °C; time window: 0-4 h after rhamnose induction
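Further: Bxb1 expression induced with 0.2% (w/v) L-rhamnose at OD600 near 0.5, cultures sampled hourly, flipped fraction per protease–substrate barcode pair counted by paired-end Illumina sequencing.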

Variant	area with substrate CNLYFQS	area with substrate FNLYFQS	area with substrate GNLYFQS	area with substrate HNLYFQS	area with substrate KNLYFQS	area with substrate MNLYFQS	area with substrate NNLYFQS	area with substrate PNLYFQS	area with substrate QNLYFQS	area with substrate SNLYFQS	area with substrate TNLYFQS	area with substrate VNLYFQS	area with substrate WNLYFQS	area with substrate YNLYFQS	area with substrate INLYFQS	area with substrate RNLYFQS	area with substrate LNLYFQS
V229Y	0.0682	0.0743	0.067	0.078	0.0667	0.0664	0.0552	0.0674	0.0899	0.0671	0.0605	0.065	0.0611	0.0625	–	–	–
V229H	0.0642	–	–	0.0575	–	0.0822	–	0.0794	–	0.0734	0.0662	0.0886	0.0627	0.0728	0.0841	0.0454	–
V229L	0.0687	0.0604	–	0.0584	0.075	0.0687	0.0725	0.0657	–	0.0511	0.0677	0.0694	0.0696	0.0615	–	0.0639	0.0722
E231G	0.0728	–	0.0731	0.0914	0.078	0.0724	–	–	–	0.0826	0.0596	0.0581	0.0556	0.0718	0.04	0.046	0.0463
E231M	0.0829	–	–	0.0496	–	0.0751	0.0988	0.0773	–	0.0897	0.0684	0.0684	0.0628	0.0627	0.0547	–	–
F226Y	0.0581	–	0.0712	0.0552	0.066	–	–	–	–	0.0614	0.0663	–	0.0679	0.0669	–	–	0.0645
K216L	0.0474	–	–	–	0.0642	0.0757	0.0712	–	–	0.0192	–	–	–	–	0.0678	–	–
S209C	0.0669	–	–	0.0642	–	–	–	0.139	–	–	0.0546	–	0.0611	0.0906	–	0.0647	–
S201P	0.063	–	–	0.0486	–	0.0638	–	0.0654	0.0503	–	0.0669	–	0.0514	–	0.0642	–	0.0621
F218S	0.0569	0.0587	0.0478	0.0607	0.0582	–	0.0566	0.072	0.0593	0.0678	0.0576	–	0.0566	–	0.0791	0.0621	–
F218G	0.0689	–	–	–	0.0881	0.0662	–	0.0432	–	0.0592	0.0681	–	0.0615	0.0376	–	–	0.0715
F218H	0.0856	0.0492	–	–	–	0.0659	0.0581	0.0782	–	–	0.0502	–	0.0502	0.0772	0.0613	–	–
G202N	0.0531	0.061	–	0.0546	–	0.038	0.0761	0.0614	–	0.0603	0.0528	–	0.0585	0.0803	0.0689	–	–
G202S	0.0444	0.052	0.038	0.0599	0.0499	–	–	0.0652	0.0563	0.0733	–	0.0677	–	0.0761	0.0475	–	0.049
G202V	0.0486	–	–	0.0459	0.0429	–	0.0501	0.0568	–	0.0724	–	–	0.0618	–	–	–	0.0672
W212M	0.0904	–	0.0638	0.0589	0.084	0.0799	–	–	–	0.0703	0.074	0.104	–	0.0687	0.0739	–	–
W144L	–	0.122	0.0738	0.063	–	–	–	0.0772	–	–	0.0656	–	–	0.081	0.0689	–	0.0485
